The supplement of paper PMC11417369
± gives the standard deviation of the averaged measurements. The list shows a part of the results.

system: PfAP2-EXP AP2 domain (GST-tagged); assay: gcPBM binding intensity (ln(normalized median fluorescence intensity)); higher = stronger DNA binding
In short: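 Probes on an Agilent 4 × 180k array were primer-extended, double-stranded and 36 bp long, taken from intergenic genomic regions, with negative controls added. GST-tagged P. falciparum DNA-binding domains from E. coli, about 25 μg on average, were applied to the array for 1 h in 1× PBS containing 1% milk, 0.2 mg/ml BSA, 0.5% salmon testes DNA and 0.03% Triton X-100. Binding intensity, obtained after Alexa488 anti-GST antibody detection and a 488 nm scan, is the highest Masliner-normalised natural-log median intensity across replicate spots of either probe orientation.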

Sequence	gcPBM binding intensity (ln)
AAATTATTAAAAAAAAGTACATATATATATATATAT [XGTACX_site8313]	10.4 ± 0.25
ATAATACACGATTATTTTCCCTTTATGTAAATATAT [CACACA_negctrl_site1107]	8.54 ± 0.33
TAAATCAGCCATAACACACATACATATATACATAAA [CACACA_site396]	8.41 ± 0.41
TTTTTCATTTTTAAAATAATTATAATATTATACATA [XGTACX_negctrl_site43]	8.41 ± 0.3
TAAATATATATTATATGTACTTATATATATATATAT [XGTACX_site4448]	9.85 ± 0.3
ATAATTAACAAATACACACACACACGCCCACAAAAA [CACACA_site6389]	8.92 ± 0.49
AGCAAATAAATAAATAAATAAATAAATATATATATA [TGCATGCA_negctrl_site40]	9.62 ± 0.11
TTTTAATAAAAGCCCATGCACACCTTAGAAAGTTTT [CACACA_site346]	8.36 ± 0.45
ATATATATGTGTAAAAGTACATATATTTTGAAATAT [XGTACX_site4024]	8.54 ± 0.3
AAAAAAAAAAAAATGTGTACATACATATATTTATAT [XGTACX_site3076]	8.38 ± 0.13
GGAAAAGGTATCCGTTCACACATAAATGGATACCAT [CACACA_site5072]	8.31 ± 0.4
TGGGCACCCATATACACACACAAATACAATGATAAA [CACACA_site4762]	8.61 ± 0.45
TATATATATGTATATGTGCACAGTTTTCTTATTAAA [GTGCAC_site9990]	8.9 ± 0.092
AATATATTATATATATGTACATATGTGTATACATTT [XGTACX_site937]	8.55 ± 0.3
TTTTATTTATTTTATTGTACATATATAAAACTATGA [XGTACX_site3476]	8.57 ± 0.42
TCTATATAGATTTGCACACATAAAAATGCTTATATA [CACACA_site2389]	8.57 ± 0.39
ATTACATATTGATAAGTGCAAGTGTGAGAAATGTTA	8.76 ± 0.32
CAATCAAATGGACACACACACACCTAAACATAAAAG [CACACA_site5524]	8.78 ± 0.54
CTTTTTTTTTTAAATTGTACAAATGTGATGTAATAG [XGTACX_site3219]	8.52 ± 0.4
ATTAAAAAATTACAAGCATGCTTGTTAAAATTTTTT [TGCATGCA_site941]	8.4 ± 0.35
TAGACAAAATATAATGCACACTATTATTTTTATTTA [CACACA_site5508]	8.58 ± 0.18
TAAAATTTTATAAAGGAACACACATTTTTTTTTTTT [CACACA_site8740]	8.24 ± 0.32
AACTTGTATTTATACACACACACACTGTCTTTTTTT [CACACA_site7009]	8.93 ± 0.39

Sequence	gcPBM binding intensity (ln)
TATTTTAATATGTATACATGCATACCTACTCATACA [TGCATGCA_site779]	8.91 ± 0.34
AATTTAAAAATGGACACACACAAAAAATAATACTTA [CACACA_site250]	8.71 ± 0.57
AAAAAAGTTGTATTTGCACACATAAAAAAAAGATAT [CACACA_site3839]	8.88 ± 0.31
AAAAATTAACAAAAGGTGCAATTTATTTATTAACGG	8.47 ± 0.2
TTATAAATAAAAAATACACACATATATATATATATA [CACACA_site207]	10.1 ± 0.34
GTATATTATATTGGGTGTACCATATATAATATAATC [XGTACX_site8579]	8.45 ± 0.35
TATTCTCTCTTATGAACACACATTTTTATTTTCAAA [CACACA_site7554]	8.62 ± 0.4
GGAAACAAAAAATATATACACACTAATCATAAAAAA [CACACA_site7890]	8.62 ± 0.54
ATTAATATATTATCATGTACACAAAAATAATTTTAT [XGTACX_site7257]	8.45 ± 0.26
TAAAAATATATATGATTGCACTTAGGACAATATATA	8.38 ± 0.29
AAGAAAAATATATAAATAAATAAATATATAAATATA [CACACA_negctrl_site836]	8.06 ± 0.38
AATAAAAAAAGTTTTTTTTTTTTTTAAACAATAGAC [CACACA_negctrl_site1061]	8.31 ± 0.37
AAGAATGTTAATAGTACACACAATTATTATATAAAT [CACACA_site3739]	8.53 ± 0.35
TATATGTTTTAAAAGTGTACTTTAGTTTCAATTTTT [XGTACX_site4269]	8.37 ± 0.38
AATAACCACCAACACACACACATATATATATATATA [CACACA_site3540]	10.2 ± 0.45
ATAATAATAATAAAAAGTACATTTAATTATATAGAA [XGTACX_site7742]	8.36 ± 0.28
AAAAATTTAATGAAATGTACATATATGTTATTAATA [XGTACX_site6091]	8.61 ± 0.45
ACATCAAGAATTATTAAGAATACGGATAGATAAAAT [GTGCAC_negctrl_site261]	8.65 ± 0.29
ATACATATTACATGTTGTACTCCAACAAAAATGCCC [XGTACX_site3201]	8.89 ± 0.35
TTAATTTCATTTTCTACACACCTATCCTTTTTTTTT [CACACA_site772]	8.65 ± 0.59
TAAATGCACATATACACACACCCAATTTTAAGTTTT [CACACA_site7428]	8.52 ± 0.36
TTTCAAAATGTGTAAAATAAAAATAATATCATTACA [TGCATGCA_negctrl_site521]	8.38 ± 0.26
